{"source": "PubChem BioAssay AID602310", "about": "(National Center for Advancing Translational Sciences (NCATS), 2012)", "note": "In all, about 410,000 compounds went through this assay and about 310 (0.076%) were called active. Inconclusive results, whose numbers are uncertain, are shown with a selection of clear calls. Calls come from the whole dose curve; as a rule, active = well fitted curve in the direction sought with a large enough effect; inconclusive = small, poorly fitted or top-dose-only effect; inactive = flat fitted curve, though single readings scatter. Where the call is inconclusive, the potency comes from a doubtful curve fit. Potency is the fitted concentration of half-maximal effect; tags give direction and shape of the fitted curve."}
{"target": "DNA dC->dU-editing enzyme APOBEC-3G (Homo sapiens) (UniProt Q9HC16)", "sequence (Q9HC16 whole entry, looked up)": "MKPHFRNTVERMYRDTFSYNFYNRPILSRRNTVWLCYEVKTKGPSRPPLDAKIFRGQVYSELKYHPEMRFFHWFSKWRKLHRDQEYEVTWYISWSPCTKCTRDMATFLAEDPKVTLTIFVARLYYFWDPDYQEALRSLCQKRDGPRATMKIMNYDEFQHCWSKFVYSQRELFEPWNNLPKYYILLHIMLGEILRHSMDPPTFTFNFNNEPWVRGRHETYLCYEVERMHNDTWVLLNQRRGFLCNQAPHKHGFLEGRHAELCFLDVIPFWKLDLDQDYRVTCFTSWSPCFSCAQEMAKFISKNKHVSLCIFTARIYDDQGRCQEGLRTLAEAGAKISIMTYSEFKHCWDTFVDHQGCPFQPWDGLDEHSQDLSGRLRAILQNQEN", "assay": "qHTS for Inhibitors of Vif-A3G Interactions: qHTS; note: nearly all actives have a fitted effect of over 60% in size", "details": "HeLa A3G-eYFP + Vif (tagged APOBEC3G with the HIV-1 protein that degrades it), YFP fluorescence, overnight; series mostly up to 46.1 µM", "method_in_brief": "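Read-out is eYFP fluorescence (Ex 488/Em 500-530) from Vif-expressing HeLa A3G-eYFP cells; more signal means A3G escaped Vif-mediated degradation. Cells plated overnight, compound pinned in, incubated overnight at 37 deg C.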"}
{"smiles": "CCN(CC)c1ccc(-c2nnc(SCC(=O)NCc3ccco3)n2C)cc1", "Potency": "inactive"}
{"smiles": "COCCCNC(=O)c1ccc(Cn2c(=O)c3ccccc3n(Cc3c(C)cc(C)cc3C)c2=O)cc1", "Potency": "inactive"}
{"smiles": "CC(=O)c1cccc(-c2ccnc3c2CC(C(=O)Nc2ccc4c(c2)OCO4)O3)c1", "note": "(stereo not drawn)", "Potency": "inconclusive: 1.41 µM [inhibitor, full curve, poor fit]"}
{"smiles": "CCCCC(=O)N/N=C/c1ccc(-c2ccc([N+](=O)[O-])cc2)o1", "Potency": "inactive"}
{"smiles": "COc1cc(/C=N\\NC(=O)c2nonc2N)c(OC)cc1Br", "Potency": "inconclusive: 12.6 µM [inhibitor, partial curve]"}
{"smiles": "COC(=O)C1=C(C)NC2=C(C(=O)CC(c3cccs3)C2)C1c1ccsc1", "note": "(stereo not drawn)", "Potency": "inconclusive: 11.2 µM [inhibitor, partial curve]"}
{"smiles": "N#CC(C#N)=c1ccc2c(c1)N1C3=C(CCCC3)CC3CCCCC31N=2", "note": "(stereo not drawn)", "Potency": "inconclusive: 35.5 µM [inhibitor, single point]"}
{"smiles": "CC(C)CNC(=S)Nc1ccc(Oc2ccccc2)cc1", "Potency": "inactive"}
{"smiles": "CCc1ccc(C2=CC(c3c(F)cccc3Cl)n3c(nc4ccccc43)N2)cc1", "note": "(stereo not drawn)", "Potency": "inconclusive: 22.4 µM [inhibitor, single point]"}
{"smiles": "O=C1CC(=O)OC(c2ccc([N+](=O)[O-])cc2)O1", "Potency": "inconclusive: 3.16 µM [inhibitor, full curve, poor fit]"}
{"smiles": "CN(C)c1ccc(/C=C/c2c(Cl)cnc3ccccc23)cc1", "Potency": "inconclusive: 7.08 µM [inhibitor, full curve]"}
{"smiles": "CC1=C(C(=O)N(C(C)C)C(C)C)CC(CC(=O)NCCCCc2ccccc2)C(=O)N1Cc1ccc(F)cc1", "note": "(stereo not drawn)", "Potency": "inactive"}
{"smiles": "C#CCN1C=C(C(=O)OCC)C(C)N(Cc2ccccc2I)S1(=O)=O", "note": "(stereo not drawn)", "Potency": "inconclusive: 3.55 µM [inhibitor, single point]"}
{"smiles": "C=CCOc1c(Br)cc(CNc2ccc(NC(=O)C(C)C)c(OC)c2)cc1OC", "Potency": "inconclusive: 2.82 µM [inhibitor, full curve, poor fit]"}
{"smiles": "N#CC1=C(N)NC(SCc2ccc(F)cc2)=C(C#N)C12CCCCC2", "Potency": "inconclusive: 7.94 µM [inhibitor, partial curve, poor fit]"}
{"smiles": "Cc1ccc(CCC(=O)Nc2ncc(Cc3cc(Cl)ccc3Cl)s2)o1", "Potency": "inconclusive: 0.355 µM [inhibitor, full curve, poor fit]"}
{"smiles": "Cn1cc(/C=C(\\C#N)C(=O)Nc2ccccc2O)c2ccccc21", "Potency": "inconclusive: 25.1 µM [inhibitor, single point]"}
{"smiles": "O=C(NCc1ccncc1)C1Cc2c(-c3ccc4c(c3)OCO4)ccnc2O1", "note": "(stereo not drawn)", "Potency": "inconclusive: 28.2 µM [inhibitor, single point]"}
{"smiles": "CCc1ccc(NC(=O)CSC2=C(C#N)C(c3ccco3)C3=C(CCCC3=O)N2)cc1", "note": "(stereo not drawn)", "Potency": "inactive"}
{"smiles": "O=C(/C=C/c1ccccc1)c1ccccc1O", "Potency": "inconclusive: 22.4 µM [inhibitor, single point]"}
{"smiles": "CCCn1cc(NC(=O)C2CC(c3cccc(Br)c3)=NO2)cn1", "note": "(stereo not drawn)", "Potency": "inactive"}
{"smiles": "O=C(Nc1ccccc1Cl)c1ccc([N+](=O)[O-])o1", "Potency": "inconclusive: 35.5 µM [inhibitor, single point]"}
{"smiles": "N#Cc1cccc(NC(=S)Nc2ccccc2)c1", "Potency": "inactive"}
{"smiles": "COc1ccnc(Oc2ccc(F)cc2)c1C(=O)N/C=N/OCc1ccc(Cl)cc1Cl", "Potency": "inactive"}
{"smiles": "Cc1cccc(N2CCN(C(=O)C3CCN(c4ncnc5c4nc4n5CCCCC4)CC3)CC2C)c1", "note": "(stereo not drawn)", "Potency": "inconclusive: 35.5 µM [inhibitor, single point]"}
{"smiles": "Nc1nc(-c2cccs2)c(-c2cccs2)s1", "Potency": "inconclusive: 17.8 µM [inhibitor, single point]"}
{"smiles": "CCOC(=O)CN1C(c2ccc(O)cc2)Nc2ccc(Br)cc2C1c1ccccc1", "note": "(stereo not drawn)", "Potency": "inactive"}
{"smiles": "CCN(CC)c1nc(C#N)cc(-c2ccc(OC)cc2)n1", "Potency": "inconclusive: 2.82 µM [inhibitor, full curve, poor fit]"}
{"smiles": "Nc1ncnc2c1[nH]c(=S)n2C1OC(CO)C(O)C1O", "note": "(stereo not drawn)", "Potency": "inactive"}
{"smiles": "C#CCOCCOCCOCCNc1nc(N2CCN(C(=O)CCCCCCCCCCNC(=O)Cn3cc(C[C@@H](C)O)nn3)CC2)nc(N2CCN(C(=O)CCCCCCCCCCNC(=O)Cn3cc(C[C@@H](C)O)nn3)CC2)n1", "Potency": "inconclusive: 12.6 µM [inhibitor, single point]"}
{"smiles": "CC(=O)Nc1cccc(-c2ccnc3c2CC(C)(C(=O)NCc2ccc(F)c(F)c2)O3)c1", "note": "(stereo not drawn)", "Potency": "inconclusive: 2.51 µM [inhibitor, full curve, poor fit]"}
{"smiles": "CC(=O)Nc1cc(-c2ccoc2)cn2c(-c3ccccc3)cnc12", "Potency": "inconclusive: 17.8 µM [inhibitor, single point]"}
{"smiles": "O=C(/C=C/c1ccco1)NC(=S)Nc1ccccc1", "Potency": "inconclusive: 17.8 µM [inhibitor, single point]"}
{"smiles": "Cc1[nH]ccc(=O)c1OCc1c(Cl)cccc1Cl", "Potency": "inactive"}
{"smiles": "COc1ccc(C(=O)Nc2cc(-c3nc4ccccc4s3)ccc2OC)cc1", "Potency": "inconclusive: 2.82 µM [inhibitor, full curve]"}
{"smiles": "CCOc1ccc(N2C(=O)C(Cl)=C(N3CCOCC3)C2=O)cc1", "Potency": "inactive"}
{"smiles": "CN1CCC(N(C)C(=O)/C=C/c2cn(-c3ccccc3)nc2-c2cccs2)CC1", "Potency": "inconclusive: 31.6 µM [inhibitor, single point]"}
{"smiles": "Cc1ccc(NC(=O)c2ccc(NCc3ccco3)c([N+](=O)[O-])c2)cc1Cl", "Potency": "inconclusive: 15.8 µM [inhibitor, single point]"}
{"smiles": "O=[N+]([O-])/C=C/c1cn(Cc2ccc(F)cc2)c2ccccc12", "Potency": "inconclusive: 12.6 µM [inhibitor, single point]"}
{"smiles": "Cc1cccc(NC(=O)CSCC(=O)Nc2sccc2C#N)c1", "Potency": "inactive"}
{"smiles": "CCCN1CCc2c(sc(NC(=O)c3ccc(S(=O)(=O)N4CCCC4)cc3)c2C(N)=O)C1", "Potency": "inconclusive: 11.2 µM [inhibitor, partial curve, poor fit]"}
{"smiles": "COc1cc(C(=O)N/N=C/c2sc(=O)n(-c3ccccc3)c2Cl)cc(OC)c1OC", "Potency": "inactive"}
{"smiles": "O=c1nc(/C=C/c2cccn2-c2ccc([N+](=O)[O-])cc2)cc(C(F)(F)F)[nH]1", "Potency": "inactive"}
{"smiles": "C[n+]1cc2c3c(ccc2c2ccc4cc5c(cc4c21)OCO5)OCO3", "Potency": "inconclusive: 3.55 µM [inhibitor, single point]"}
{"smiles": "Cc1cc(C)cc(NC(=O)c2ccc([N+](=O)[O-])o2)c1", "Potency": "inconclusive: 8.91 µM [inhibitor, partial curve, poor fit]"}
{"smiles": "Cc1nc(-c2ccc(Cl)cc2)sc1C(=O)NN", "Potency": "inconclusive: 5.62 µM [inhibitor, full curve]"}
{"smiles": "Cc1cc(C)nc(Nc2nc(C(N)c3ccccc3)cs2)n1", "note": "(stereo not drawn)", "Potency": "inconclusive: 20 µM [inhibitor, single point]"}
{"smiles": "Oc1ccccc1C1C=C(c2ccc3c(c2)OCO3)NC(c2c(F)cccc2Cl)N1", "note": "(stereo not drawn)", "Potency": "inconclusive: 28.2 µM [inhibitor, single point]"}
{"smiles": "COc1cc(C=NNc2ccccc2)ccc1OC(=O)c1ccccc1", "Potency": "inconclusive: 25.1 µM [inhibitor, single point]"}
{"smiles": "CCc1nnc(NC(=O)CSc2nnc3c(C)cc4c(C)ccc(C)c4n23)s1", "Potency": "inconclusive: 4.47 µM [inhibitor, full curve, poor fit]"}
{"smiles": "CC(=O)Nc1cccc(C(=O)Nc2ccccc2N2CCOCC2)c1", "Potency": "inconclusive: 28.2 µM [inhibitor, single point]"}
{"smiles": "COc1ccccc1N1C(=O)S/C(=C\\c2ccc(C)s2)C1=O", "Potency": "inconclusive: 12.6 µM [inhibitor, partial curve]"}
{"smiles": "CN(CC(=O)O)c1ccc(/C=C/c2ccnc3ccccc23)cc1", "Potency": "inconclusive: 35.5 µM [inhibitor, partial curve, poor fit]"}
{"smiles": "COc1ccccc1/C=C/C=N/NC(=O)c1cc(-c2ccco2)[nH]n1", "Potency": "inconclusive: 12.6 µM [inhibitor, single point]"}
{"smiles": "Cc1nnnn1/C(=C\\c1ccccc1)C(=O)OCC(=O)Nc1cccc(S(=O)(=O)N(C)C)c1", "Potency": "inconclusive: 35.5 µM [inhibitor, single point]"}
{"smiles": "COc1cc2c(cc1OC)C(=O)N1[C@H]3c4cc(C)ccc4OC[C@@H]3[C@H](c3ccccc3)[C@]1(C)C(=O)N2", "Potency": "inconclusive: 2.82 µM [inhibitor, full curve, poor fit]"}
{"smiles": "CCOc1ccc(CCNC(=O)C2CCC(=O)N2CCc2ccccc2)cc1OCC", "note": "(stereo not drawn)", "Potency": "inactive"}
{"smiles": "CC1=CC(C)(C)NC(=S)N1c1ccc2ccccc2c1", "Potency": "inconclusive: 6.31 µM [inhibitor, partial curve, poor fit]"}
{"smiles": "CCOC(=O)c1c(/N=C/C2=C(O)CCCC2=O)sc(C)c1C", "Potency": "inactive"}
{"smiles": "Cc1ccc(S(=O)(=O)NCCc2cn3ccsc3n2)c(C)c1", "Potency": "inactive"}
{"smiles": "Oc1ccc(Cl)cc1CNC1CCCCC1", "Potency": "inactive"}
{"smiles": "Cc1ccc(S(=O)(=O)Nc2ccc(SC(F)F)cc2)c(C)c1", "Potency": "inactive"}
{"smiles": "CCOC(=O)CSc1ccc(-c2nc3cc(C)c(C)cc3[nH]2)cn1", "Potency": "inactive"}
{"smiles": "O=C(CN1CCN(S(=O)(=O)N2CCCCCC2)CC1)Nc1ccc(Br)cc1", "Potency": "inactive"}
{"smiles": "CCN(CC)c1ccc(C=C(c2nnnn2-c2ccc(C)cc2)c2nnnn2-c2ccc(C)cc2)cc1", "Potency": "inconclusive: 11.2 µM [inhibitor, partial curve, poor fit]"}
{"smiles": "CCOCCCn1cc(C(=O)c2cc(Br)ccc2O)cc(C#N)c1=O", "Potency": "inconclusive: 35.5 µM [inhibitor, single point]"}
{"smiles": "FC(F)C(F)(F)Oc1cccc(Nc2nccn3c(-c4ccc5ccccc5c4)cnc23)c1", "Potency": "inactive"}
{"smiles": "O=C(N/N=C/C(Cl)=C/c1ccccc1)c1ccncc1", "Potency": "inconclusive: 25.1 µM [inhibitor, single point]"}
